Source: publication PMC4336329 (PLoS ONE, 2015)
Among all 310,000 compounds or so, about 2,200 (0.71%) showed an effect of 50% or more. Effects have a minus sign here. This is one part of the list.

Molecular target: human ether-à-go-go-related gene (hERG) potassium channel (human, UniProt Q12809)
Assay: primary screen, population patch clamp on CHO cells stably expressing hERG

Sequence of human ether-à-go-go-related gene (hERG) potassium channel (Q12809 whole entry, looked up): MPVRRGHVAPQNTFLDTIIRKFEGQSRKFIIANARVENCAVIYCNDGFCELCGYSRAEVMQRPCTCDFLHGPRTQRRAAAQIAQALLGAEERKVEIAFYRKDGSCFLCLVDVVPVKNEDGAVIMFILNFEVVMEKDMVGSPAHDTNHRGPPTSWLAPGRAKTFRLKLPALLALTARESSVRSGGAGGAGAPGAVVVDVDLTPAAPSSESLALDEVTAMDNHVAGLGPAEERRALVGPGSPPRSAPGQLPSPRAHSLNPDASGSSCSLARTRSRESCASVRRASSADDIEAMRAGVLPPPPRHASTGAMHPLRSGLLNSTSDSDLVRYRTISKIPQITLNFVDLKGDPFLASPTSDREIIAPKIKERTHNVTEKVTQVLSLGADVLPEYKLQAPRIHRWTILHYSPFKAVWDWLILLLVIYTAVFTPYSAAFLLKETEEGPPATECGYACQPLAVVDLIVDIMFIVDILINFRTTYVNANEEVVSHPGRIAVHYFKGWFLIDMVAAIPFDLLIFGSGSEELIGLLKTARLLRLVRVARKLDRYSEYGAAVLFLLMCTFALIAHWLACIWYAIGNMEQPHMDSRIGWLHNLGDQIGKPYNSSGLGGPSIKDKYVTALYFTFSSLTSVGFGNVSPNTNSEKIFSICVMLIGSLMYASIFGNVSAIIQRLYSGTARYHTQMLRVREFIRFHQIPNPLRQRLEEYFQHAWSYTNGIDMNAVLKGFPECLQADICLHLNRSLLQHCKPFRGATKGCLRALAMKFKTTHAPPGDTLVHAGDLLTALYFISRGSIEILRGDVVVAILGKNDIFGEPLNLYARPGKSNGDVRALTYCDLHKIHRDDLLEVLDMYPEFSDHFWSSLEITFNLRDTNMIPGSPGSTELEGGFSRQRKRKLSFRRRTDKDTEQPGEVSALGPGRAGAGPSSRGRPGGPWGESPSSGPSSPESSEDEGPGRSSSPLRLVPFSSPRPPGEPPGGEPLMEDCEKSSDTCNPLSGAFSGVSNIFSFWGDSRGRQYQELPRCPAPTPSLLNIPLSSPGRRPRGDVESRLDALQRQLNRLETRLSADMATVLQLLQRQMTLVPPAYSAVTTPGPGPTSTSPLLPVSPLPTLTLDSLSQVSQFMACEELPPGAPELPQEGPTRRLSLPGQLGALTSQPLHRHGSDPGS

Structure (SMILES)	hERG current change (%, negative = inhibition) at 1uM [%]
Cc1ccccc1C(=O)N1CCC(C(N)=O)CC1	14.5
CCN(CC(=O)Nc1ccccc1C(F)(F)F)C(=O)CCc1ccccc1	9.35
O=[N+]([O-])c1ccc(O)c(/C=N/Nc2ccccc2[N+](=O)[O-])c1	7.14
O=C(Nc1cccc(NC(=O)C2CC2)n1)C1CC1	7.4
COc1ccccc1C(=O)C1CCCN(Cc2ccc(Oc3ncccn3)cc2)C1 (centres unmarked)	-0.388
CC[C@H](C)[C@H](NC(=O)c1ccccc1)C(=O)Nc1ccc(S(=O)(=O)Nc2cc(C)nc(C)n2)cc1	3.65
O=C(NCCc1ccc(Cl)cc1)C1CCN(C(=O)N2CCOc3ccccc32)CC1	-7.14
O=C(Cc1ccccc1)N/N=C/c1cc(Br)cc(Br)c1O	13.5
COCCCNc1nc(SCc2ccccc2)nc2sc3c(c12)CCC3	26.3
CCOc1ccccc1CNC(=O)CCCn1ccc2cc(S(=O)(=O)N3CCCC3)ccc21	3.88
O=C(NCc1cccs1)c1cc(-c2ccccc2)nn1CC1CC(c2cccc([N+](=O)[O-])c2)=NO1 (centres unmarked)	-0.472
Cc1ccc(C(N)=Nc2ccccc2)cc1	14.3
CCOC(=O)c1c(NC(=O)CN2CCN(C)CC2)sc(C(=O)Nc2ccccc2)c1C	-0.328
COc1cc(CCC(=O)OCC(=O)NCc2ccc(Cl)cc2)cc(OC)c1OC	16.3
Cn1cc(S(=O)(=O)N2CCCC2)cc1C(=O)NCc1ccc(F)cc1	3.87
CCOC(=O)CC(NC(=O)Cc1ccccc1)c1ccccc1Cl (centres unmarked)	0.874
Cc1nn2c(-c3cccc(NC(=O)CSc4nc5ccccc5o4)c3)nnc2c2ccccc12	-35.4
COc1ccc(C2C(C(=O)Nc3ccccn3)=C(C)Nc3ncnn32)c(OC)c1 (centres unmarked)	12.8
Cc1cc(C(=O)Nc2ccc(S(=O)(=O)Nc3nccs3)cc2)c(C)o1	-8.29
O=C(NC1CCCC1)c1cc(-c2ccccc2)on1	3.64
O=C(O)C(=O)O.O=C(c1ccccc1)N1CCN(C2CCCCC2)CC1	-4.37
COc1ccc(-c2nc3ccc([N+](=O)[O-])cc3o2)cc1	7.65
CCOC(=O)c1c(NC(=O)c2ccc(N3C(=O)[C@@H]4[C@H](C3=O)[C@H]3C=C[C@@H]4C3)cc2)sc2c1CCCC2	4.8

Structure (SMILES)	hERG current change (%, negative = inhibition) at 1uM [%]
Cn1c(=O)c2c(ncn2CC(=O)Nc2ccc(Cl)cc2Cl)n(C)c1=O	3.86
Cc1cc(C)nc(Nc2ccc(Br)cc2C(=O)O)n1.Cl	17.3
Cc1ccoc1C(=O)NCCNc1ccc(Cl)cc1[N+](=O)[O-]	-2.58
CC(=O)Oc1c(Cl)cc(N(C(C)=O)S(=O)(=O)c2ccccc2)c2ccccc12	11.4
CC(C)NC(=S)N/N=C/c1ccc(C(C)(C)C)cc1	11.3
Cc1cccc(C)c1NC(=O)c1cc(S(=O)(=O)N2CCOCC2)cn1C	13.6
CCOCCOC(=O)Cn1cnc2scc(-c3ccc(C)cc3)c2c1=O	11.8
Cc1cc(-c2sccc2C)nc(-n2cccc2)n1	2.44
O=C(Nc1ccccc1F)Nc1ccccc1F	-4.38
COCCNC(=S)NC1CC2CCCC(C1)N2Cc1cccs1 (centres unmarked)	-1.25
CC(C1CC1)N(Cc1ccccc1)C(=S)Nc1ccccc1 (centres unmarked)	2.49
COc1ccc(-c2nn(C)c(=O)c3ccccc23)cc1NC(=O)COc1ccccc1	7.34
O=[N+]([O-])c1cc(C(F)(F)F)ccc1N1CCCC(O)C1 (centres unmarked)	10.7
Cc1cc(NC(=O)C2CC(=O)OC2c2ccccc2)no1 (centres unmarked)	8.27
CN(C)CCNS(=O)(=O)c1ccc(N2CCc3ccccc32)c([N+](=O)[O-])c1	-1.12
Cc1cc(C)n(-c2ccc(C(=O)Nc3ccc4c(c3)OCO4)cc2)n1	9.94
CCCC(=O)Nc1ccc(C(=O)NNC(=O)c2ccccc2Br)cc1	16.6
CCOC(=O)C1=C(C)N=c2s/c(=C\c3cc(OC)c(OC)c(OC)c3)c(=O)n2C1/C=C/c1ccccc1 (centres unmarked)	3.85
COc1ccc(C(=O)c2ccc(OC)c(OC)c2)cc1OC	15.4
CCOC(=O)c1cnc2ccc(Br)cc2c1NCCO	8.05
Cn1cc(-c2cccc(C(F)(F)F)c2)cc(C#N)c1=O	7.37
Cc1ccsc1C(=O)NNC(=O)C1CCCCC1C(=O)O (centres unmarked)	7.14
CCOC(=O)c1sc(=NC(=O)CCS(=O)(=O)c2ccccc2)n(C)c1C	11.7

Structure (SMILES)	hERG current change (%, negative = inhibition) at 1uM [%]
O=C(NC(C(=O)N/N=C/c1cccc2ccccc12)c1n[nH]c(=O)c2ccccc12)c1ccccc1 (centres unmarked)	13.7
CCN(Cc1ccncc1)Cc1nc(Cc2ccccc2Cl)no1	2.33
CC(=O)c1cccc(OCC(O)CNCC2CCCCC2)c1 (centres unmarked)	11.8
COc1cc2nc(CN(C)Cc3ccc(OC)c(OC)c3OC)[nH]c(=O)c2cc1OC	17.7
Clc1ccc(Nc2cc(-c3ccccc3)nc3ncnn23)cc1	20.3
CCCCCn1c2c(c(=N)c3ccccc31)CCC2.I	-61.5
CCCCCCCCCCC(=O)Nc1cccnc1	15.8
COc1ccc(OCC(=O)Nc2ccc3oc(=O)ccc3c2)cc1	4.64
COc1ccccc1C(=O)N/N=C/c1cnc2ccccc2n1	6.27
CC(=O)c1c(C(C)=O)c(C)n(-c2ccc(N)c(C)c2)c1C	13
CS(=O)(=O)c1ccccc1COC(=O)Nc1ccc(Cl)cc1	11.2
Cc1ccccc1NC(=O)C(Cc1ccccc1)n1cccc1 (centres unmarked)	13
O=C(NC(=S)NCC1CCCO1)c1ccccc1Br (centres unmarked)	6.78
Cc1ccc(C(=O)c2c(NC(=O)c3ccccc3)sc(C)c2C)cc1	22.3
OCCOc1nnnn1-c1ccccc1	12.6
O=C(NC1CCCCC1)c1cc(Cl)nc2ccccc12	16.5
O=C(Nc1ccccc1)NC1(C(=O)N2CCN(c3ncccn3)CC2)CCCCC1	22.4
Oc1c(Br)c(Br)c(Br)c(Br)c1Br	15.9
COC(=O)CN1C(=O)CN=C(c2ccccc2Cl)c2cc(Br)ccc21	6.47
COc1ccc(-c2ccc(SCC(=O)NC3CCCC3)nn2)cc1OC	7.65
Cc1nc(N2CCC(C)CC2)c2c(C)c(C(=O)Nc3ccccc3C(F)(F)F)sc2n1	-15.5
CCOc1ccc(Nc2oc(Cc3ccccc3)nc2C#N)cc1	1.03
O=C(c1ccco1)N1CCN(c2ccc([N+](=O)[O-])cc2Cl)CC1	-20.1

Structure (SMILES)	hERG current change (%, negative = inhibition) at 1uM [%]
O=C(/C=C/c1ccc(-c2ccccc2[N+](=O)[O-])o1)c1ccc(F)cc1	2.67
Cc1ccc(S(=O)(=O)N2CCCC(C(=O)NCCc3ccccc3)C2)cc1 (centres unmarked)	16.1
COc1ccc(-n2c(-c3ccc(Br)cc3)nc(=S)c3c2CCCC3)cc1	2.59
O=C(/C=C/c1ccccc1)n1cnnc1SC/C=C/c1ccccc1	2.68
Cn1c2ccccc2c(=O)c2c(=O)n(Cc3ccccc3)c(-c3ccc(F)cc3)nc21	12.5
CCn1c(C)nc2cc(C(=O)NNC(=O)CCC3CCCCC3)ccc21	3.07
COc1cccc(C(C(=O)NC2CCCCC2)N(CCN2CCOCC2)C(=O)C2COc3ccccc3O2)c1 (centres unmarked)	-3.46
CCOc1ccc(Nc2cc(C)nc3ccc(C)cc23)cc1	-35.1
COc1cccc(C2=NOC(C(=O)Nc3cccnc3Cl)C2)c1 (centres unmarked)	16.2
Cn1c2ccccc2c(=O)c2ccc(C#CC3(O)CCCCC3)cc21	8.26
Cc1cccc(N2CC(C(=O)Nc3nnc(SCC(=O)NCC4CCCO4)s3)CC2=O)c1 (centres unmarked)	11.9
CCCCCC(=O)Nc1ccc(C(=O)COC(=O)CN2C(=O)NC3(CCCC3)C2=O)cc1	11.1
Cc1cccc(CS(=O)(=O)Cc2ccc(C(=O)NC3CCCCC3)o2)c1	-0.202
Cc1cc(C)nc(NC2=NCC(=O)N2c2cccc(Cl)c2)n1	2.51
CCc1ccc(NC(=O)CN2C(=O)COc3ccc(S(=O)(=O)N4CCCC4)cc32)cc1	7.78
CC1(C)C(c2cccs2)=[N+]([O-])C2(CCCCC2=O)N1O (centres unmarked)	14.9
CCc1ccc(NC(=O)CC2C(=O)N(c3cccc(C)c3)C(=O)N2C2CC2)cc1 (centres unmarked)	6.26
CCCCn1c(SCC(=O)NC2CCS(=O)(=O)C2)nc2ccccc2c1=O (centres unmarked)	-7.01
FC(F)Sc1nc2ccccc2[nH]1	11.7
Cn1c(SCC(=O)Nc2ccc3cn[nH]c3c2)nnc1-c1cnccn1	-6.51
